The list shows a part of the results.
Test system: PfAP2-HC AP2 domain (GST-tagged)
Assay: gcPBM binding intensity (ln(normalized median fluorescence intensity)); higher = stronger DNA binding
Outline: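 In this array assay, P. falciparum DNA-binding domains with a GST tag, expressed in E. coli, were applied for 1 h to primer-extended double-stranded 36-bp intergenic genomic probes and negative controls on an Agilent 4 × 180k array. Bound protein was visualised with Alexa488 anti-GST antibody at 488 nm. Binding intensity is the highest Masliner-normalised natural-log median intensity across replicate spots of either probe orientation.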

Sequence	gcPBM binding intensity (ln)
ATATTCTAAATAAAGGGTACACAAAAATAATTAAAG [XGTACX_site5529]	9.7
TATTTGTAATATTATACACACATTATGTATTACAAA [CACACA_site3386]	9.68
TTTTGTATATTATATGTACACACAATAAGTTAATAT [CACACA_site8207]	9.74
ATAATATGAAGAAGCACACTCAATTAAATACAGATA [CACACA_site4690]	9.72
ATACACACATATATGTGTACATATACATATATATAT [XGTACX_site6744]	10.1
AACAAAATAGGGAACACACACATGTCGATATATAAA [CACACA_site7265]	10.1
CACAGACACGGACACACACACATATATATATATATA [CACACA_site5248]	10.4
AAGAATTATTTTTTATGTACTTATATGTCAATTTTC [XGTACX_site6676]	9.68
ATAGAATATTTTATTACACACAGAATAATAAAAAAT [CACACA_site6190]	9.84
CTAAAAGGATGATGAATGCACTATTATTTATATGGA	9.47
TTATTTTTTTTAGCATATACAAATATATATATATAT [GTGCAC_negctrl_site4]	9.56
TTGTGTGAGCAAGTAGTGCATAATATAAATAAAAAA [GTGCAC_site9802]	10
TGAAATTTGTTATATGCATGTAAAATATTACGACGA [TGCATGCA_site201]	9.57
CATAAATATTTGTGTTGTACAAATATATATATTTAT [XGTACX_site7363]	9.64
AAAATTGAAGGTAGAAGTACATATTTATTTCAATAA [XGTACX_site8732]	9.63
TATATAATATATTTATGTACGTATTTAAAAATTTAT [XGTACX_site160]	9.51
TGTATTTATTAATGTACACACATGCGTATGTTCGTT [CACACA_site5892]	9.96
GAAGGAAATAAATCAACACACATATATTATATATAT [CACACA_site2188]	9.88
TATGTATAAAAATAATGTACAAAATATATTATATGT [XGTACX_site2794]	9.7
ATCTTAGTTGAAATATAGAATTTATAATAAAAGTTA [GTGCAC_negctrl_site122]	9.38
ATACTATAATAATACACACTCATTAGATATATAAAG [CACACA_site7787]	9.89
AAAAAACAAAAAAATACACACATAAAAAGGTTTTAG [CACACA_site3584]	9.99
AAATATGTCAAATATACACACATAATAAATATAATA [CACACA_site2310]	9.99

Sequence	gcPBM binding intensity (ln)
TTATAAGATGATTATAAAATCAAATTCATTCTTTTA [CACACA_negctrl_site1338]	9.26
TAAACATAACAAAGGAGTACAAAACTTGATCAGTTC [XGTACX_site3114]	10
TGTACAAATATGTACACACACACATATTTATTTATA [CACACA_site6419]	10.2
GATTTACATTTTGATGAAAATAATAAAATGTGGAAA [TGCATGCA_negctrl_site409]	9.59
ATATTTTATTTTTAAAGTACAAAAGAAAAGAATAAT [XGTACX_site8247]	9.58
AAAAAAAAAGACAAAAGTACAAAGGTTCATAATTTA [XGTACX_site3978]	9.66
AACATCAAAATATGCACACAAACAATTAGCGGTAGT [CACACA_site2521]	9.99
GAAATGGGTAAACATACACACACACCGATATATATA [CACACA_site8610]	10.4
TAACAATTATGCTGGTGTACGTTTGAAATTGGGTAT [XGTACX_site6846]	9.71
AAAAATTTCTATTTTTGTACTTACTTTTTAGTAATA [XGTACX_site5236]	9.45
CTTATATTTGGACACACACACAATAAAATGAAAAAA [CACACA_site6614]	10.3
AAATCTTCATAATAAAGTACTTAACTCTTGGTGTTA [XGTACX_site6112]	9.36
TACACAAGAAAATTCACACACACACCGATATATATA [CACACA_site6008]	10.7
AATAAATGGAAAAGGTGTACACAAAAAAAAGGGAAA [XGTACX_site4956]	10
AAAAAAAAAAAAAAAACATGCAGTTAGTGGTTTTTT [TGCATGCA_site243]	9.66
TATTATATATAATATTGTACATTAAAATATTAAAGA [XGTACX_site3698]	9.48
GGAACGTTCATATTTCCACACACAAAAAATAAATAT [CACACA_site9101]	10.2
TTTATTTTAAAATATAGTACGCAAATAAAAATAAAT [XGTACX_site7783]	9.63
ATATGTATTAAGTGTACACATATAATGGGTTTTCTT [CACACA_site5328]	9.86
GAAAAAAAAATACATACACACAATATATTTATTTAT [CACACA_site3124]	9.89
TAATTATATAAATACACACACATACACCCAAATAAA [CACACA_site5819]	11.1
TATATACTATATATATGTACACAAAATTATTTTGAA [XGTACX_site8232]	9.51
ATATGTAGTGTTATTTGTTCATTGTTTTAATTTTTA [CACACA_negctrl_site1394]	10

Sequence	gcPBM binding intensity (ln)
ATGTATATTTTTATGTGTACGTAATAAAACATAATA [XGTACX_site7777]	9.71
TTATTTTTTTTTAGAGCACACATTTTTAATAAGGTA [CACACA_site2133]	9.48
AATATGGGCATACATGTGCACTTTTTCCCGTGGTTT	9.68
TTAATTAAATATAGGGGTACATATTATATATGTTTT [XGTACX_site3677]	9.66
ACGAAAAGATATATATGTACATATATTAAAAAAAAA [XGTACX_site1517]	9.72
TTATATGCATATTTTTGTACACAACATTGTTGTATA [XGTACX_site8707]	9.74
AAGAAATTTATTTATTGTACAATATATAATTTGTTT [XGTACX_site2478]	9.54
AAATATTTCTGCAAGGTGCACTTTATAAATCTTTGA	9.48
TTCGTATGCATGAAATGTACATGATATTATTATAAA [XGTACX_site4542]	9.57
TTTTGTTAACATATAGAAAAGAACAAAGTTAAAAAG [XGTACX_negctrl_site462]	9.69
TATAAATTTGTTCAATGTACATGTAAAGATATAATC [XGTACX_site371]	9.74
TTATTTTTTATAAAATGTACATATATTTTAAATATA [XGTACX_site4026]	9.34
TGAAGCAAAAACAAAACACACATATAAATAAATAAA [CACACA_site3925]	10.1
ACCAATCCAAAAGAATGTACCCATGTTTTAAAATAT [XGTACX_site2907]	9.66
TTGAAGTGTACTATTTTATATATATATATACATTTT [CACACA_negctrl_site224]	10.1
TAGAAATATATTTATTGTACATTGTATATATTATAT [XGTACX_site7584]	9.53
TTTTAATTTTTAAGACGTACTATCATTTGATAATAA [XGTACX_site3942]	9.2
TACGATGTTTTAAAATGTACATAAAAGTCACATAAG [XGTACX_site3297]	9.58
TAATGTTCCTATATAGTGCAATTATGTTTTATTTCT	9.81
TCTTTTTTTTTTACTAGTACTTAAAAAAAAAATATG [XGTACX_site4395]	9.45
ATTATGTGCCAATACACACACACATCTATATTTATA [CACACA_site6359]	10.3
TATTTATAAATATACGCACACATTAATATATATATA [CACACA_site3969]	9.79
AGTATGTAAATGTGCCATATATATATTAAATACATA [CACACA_negctrl_site14]	9.72

Sequence	gcPBM binding intensity (ln)
ATATTATTTATTTTTAAATTATATTGATTATTTTTT [CACACA_negctrl_site451]	9.62
GTTGGTAGGCGGTACGGTACACGTAGTATTTTTCTT [XGTACX_site4213]	9.73
TTTTTTTCATATATATGTACATAATTATATATGCAT [XGTACX_site3257]	9.77
AAATAGTAAGAGATGGTGCGTTTCCTTTTTTTTTTT [GTGCAC_site9663]	10.2
TTTAAAAATATTTCACGTACGCATTTTAAAAAGTAT [XGTACX_site8026]	9.54
TTAATTATATGGTAAACAAATAAATGTGAAAGGAAA [XGTACX_negctrl_site389]	9.67
CGTGGGAGCAGACACACACACACACCCATATATATA [CACACA_site334]	10.7
TTATTATATAAATAAAAAAAAAAAAAAAAAAAAAAA [CACACA_negctrl_site1455]	8.68
TATATACGCATGCGCACACACAAGTGGGAAATTTGG [CACACA_site1785]	10.2
ACTGTGGGAATAACCACACACACACCCACATATATA [CACACA_site3542]	10.2
ATATTTATATGAATCACACACAAAAAATATAGAGAT [CACACA_site7775]	10.1
AAATCACAAAAAAAAAAAAAAATATATATATATATA [CACACA_negctrl_site10]	9.29
CATAAATACAAATATACACACATATATATATATATA [CACACA_site2633]	9.89
AATATGTTTTTTAGATGTACAGATTAAATATTAAAA [XGTACX_site7308]	9.49
AAAAAAAAAAAAAAAACACACAAACATCAAATTACT [CACACA_site6950]	9.99
AATTTCAATTTCTGTTGTACACTTTTTAATAGTAAA [XGTACX_site4085]	9.61
AAATTTAAAAATAAAGAACACACATATGTAAAATAT [CACACA_site9252]	9.95
TTTTGTATTTTTCACACACACATAAGTAAACAATAA [CACACA_site1899]	10.2
TATATTATATATATATGTACATATTATTATATCTAA [XGTACX_site3835]	9.66
TAAATGAAAATATGTACACACTTGAAAATTTTTATG [CACACA_site5599]	9.72

From the supplement of paper PMC11417369
